According to patent US11807625B2, “Capsid inhibitors for the prevention of HIV” (Gilead Sciences, Inc., priority 2019, dated 2023):
Several values for one entry are separate records, joined by “and”; a condition that tells them apart may be missing. Equal values may be shown once. This continues a long series; more values of the same kind are listed elsewhere.

Test: PK of compound of Formula (Ia) after single subcutaneous dose of solution formulations in Wistar Han rats
Format: in vivo
Conditions: individual rats, SC 50 mg/kg
Procedure: Formulations containing the compound of Formula (Ia), or a pharmaceutically acceptable salt thereof, were prepared as solutions and optionally administered subcutaneously or intramuscularly to rats, rabbits, and/or dogs.
(§1) A solution of about 400 mg/mL of the compound of Formula (Ia) having 19.14 w/w % water, 40.66 w/w % PEG 300, 35.20 w/w % of a sodium salt of a compound of Formula (Ia), and 5.00% ethanol was prepared. The solution was administered subcutaneously to male Wistar Han rats at a dose level of about 50 mg/kg and dose volume of 0.125 mL/kg and the pharmacokinetic (PK) profile was determined.
as §1, with “500” for “400”, “16.64” for “19.14”, “35.36” for “40.66”, “43.00” for “35.20”, “0.1” for “0.125”
(§2) A solution of about 400 mg/mL of the compound of Formula (Ia) having 17.00 w/w % water, 36.40 w/w % PEG 300, 35.20 w/w % of a sodium salt of a compound of Formula (Ia), 5.00 w/w % ethanol, and 6.40 w/w % poloxamer 188 was prepared. The solution was administered subcutaneously to male beagle dogs at a dose level of about 12 mg/kg and male Wistar Han rats at a dose level of about 50 mg/kg. The pharmacokinetic profiles were determined, and the results for dogs are summarized in Table and Table, while the results for rats are summarized in Table and Table below.
as §2, with “500” for “400”, “14.06” for “17.00”, “30.12” for “36.40”
A solution of about 300 mg/mL of the compound of Formula (Ia) having 23.33 w/w % water, 48.99 w/w % PEG 300, 26.47 w/w % of a sodium salt of a compound of Formula (Ia), and 1.21 w/w % poloxamer 188 was prepared. The solution was administered subcutaneously to male beagle dogs at a dose level of about 6 mg/kg and male Wistar Han rats at a dose level of about 50 mg/kg. The pharmacokinetic profiles were determined, and the results for dogs are summarized in Table and Table, while the results for rats are summarized in Table and Table below.
as §2, with “18.80” for “17.00”, “40.25” for “36.40”, “34.38” for “35.20”, “1.57” for “6.40”
as §2, with “500” for “400”, “16.29” for “17.00”, “34.88” for “36.40”, “41.92” for “35.20”, “1.91” for “6.40”
A solution of about 400 mg/mL of the compound of Formula (Ia) having 20.90 w/w % water, 44.72 w/w % PEG 300, and 34.38 w/w % of a sodium salt of a compound of Formula (Ia) was prepared. […]

Plasma concentration (1.00 h, solution S, 500 mg/mL): 37.7 nM and 33.8 nM and 76.1 nM
Plasma concentration (1.00 h, solution V, 300 mg/mL): 48.4 nM and 54.4 nM
Plasma concentration (3.00 h, solution T, 400 mg/mL): 113 nM and 129 nM and 156 nM and 149 nM
Plasma concentration (3.00 h, solution V, 300 mg/mL): 109 nM and 97.1 nM
Plasma concentration (8.00 h, solution T, 400 mg/mL): 173 nM and 232 nM and 171 nM and 185 nM
Plasma concentration (8.00 h, solution U, 500 mg/mL): 106 nM and 107 nM and 168 nM and 154 nM
Plasma concentration (8.00 h, solution V, 300 mg/mL): 142 nM and 153 nM
Plasma concentration (24.0 h, solution U, 500 mg/mL): 178 nM and 196 nM and 214 nM and 230 nM
Plasma concentration (24.0 h, solution V, 300 mg/mL): 169 nM and 189 nM
Plasma concentration (48.0 h, solution V, 300 mg/mL): 138 nM and 187 nM
Plasma concentration (72.0 h, solution T, 400 mg/mL): 204 nM and 319 nM and 181 nM and 178 nM
Plasma concentration (72.0 h, solution V, 300 mg/mL): 116 nM and 142 nM
Plasma concentration (96.0 h, solution U, 500 mg/mL): 137 nM and 130 nM and 169 nM and 170 nM
Plasma concentration (96.0 h, solution V, 300 mg/mL): 90.1 nM and 155 nM
Plasma concentration (168 h, solution V, 300 mg/mL): 80.1 nM and 132 nM
Plasma concentration (336 h, solution V, 300 mg/mL): 170 nM and 238 nM
Plasma concentration (504 h, solution V, 300 mg/mL): 210 nM and 343 nM
Plasma concentration (672 h, solution V, 300 mg/mL): 275 nM and 375 nM
Plasma concentration (840 h, solution V, 300 mg/mL): 278 nM and 362 nM
Plasma concentration (1008 h, solution V, 300 mg/mL): 221 nM and 126 nM and 427 nM
Plasma concentration (1344 h, solution V, 300 mg/mL): 282 nM and 350 nM
Plasma concentration (1680 h, solution T, 400 mg/mL): 161 nM and 52.9 nM and 172 nM and 193 nM
Plasma concentration (1680 h, solution V, 300 mg/mL): 246 nM and 284 nM
Plasma concentration (2016 h, solution T, 400 mg/mL): 110 nM and 63.7 nM and 194 nM (2×)
Plasma concentration (2016 h, solution V, 300 mg/mL): 191 nM and 213 nM
Plasma concentration (2352 h, solution V, 300 mg/mL): 176 nM and 197 nM
Plasma concentration (2688 h, solution V, 300 mg/mL): 155 nM and 156 nM
Plasma concentration (3024 h, solution S, 500 mg/mL): 116 nM and 81.8 nM
Plasma concentration (3024 h, solution V, 300 mg/mL): 121 nM and 94.9 nM
Plasma concentration (3360 h, solution S, 500 mg/mL): 118 nM and 77.5 nM
Plasma concentration (3360 h, solution V, 300 mg/mL): 74.6 nM and 76.5 nM
Plasma concentration (3696 h, solution S, 500 mg/mL): 105 nM and 69.1 nM
Plasma concentration (3696 h, solution V, 300 mg/mL): 62.3 nM and 70.7 nM
Plasma concentration (4032 h, solution S, 500 mg/mL): 133 nM and 78.3 nM
Plasma concentration (4032 h, solution V, 300 mg/mL): 55.8 nM and 44.5 nM
Plasma concentration (4704 h, solution S, 500 mg/mL): 96.4 nM and 55.2 nM
Plasma concentration (4704 h, solution V, 300 mg/mL): 31.3 nM and 23.4 nM
Plasma concentration (5376 h, solution S, 500 mg/mL): 59.7 nM and 78.6 nM and 38.1 nM
SMILES: CC(C)(C#Cc1ccc(-c2ccc(Cl)c3c(NS(C)(=O)=O)nn(CC(F)(F)F)c23)c([C@H](Cc2cc(F)cc(F)c2)NC(=O)Cn2nc(C(F)(F)F)c3c2C(F)(F)[C@@H]2C[C@H]32)n1)S(C)(=O)=O [compound of Formula (Ia)]
Plasma concentration (1.00 h, solution T, 400 mg/mL): 32.9 nM and 54.4 nM and 38.0 nM and 67.5 nM and 89.1 nM
Plasma concentration (1.00 h, solution U, 500 mg/mL): 53.6 nM and 48.0 nM and 66.8 nM and 41.7 nM
Plasma concentration (3.00 h, solution U, 500 mg/mL): 123 nM and 74.2 nM and 81.3 nM and 164 nM and 108 nM
Plasma concentration (24.0 h, solution T, 400 mg/mL): 548 nM and 250 nM and 444 nM and 233 nM and 221 nM
Plasma concentration (48.0 h, solution T, 400 mg/mL): 562 nM and 212 nM and 398 nM and 172 nM and 190 nM
Plasma concentration (48.0 h, solution U, 500 mg/mL): 279 nM and 172 nM and 138 nM and 218 nM and 246 nM
Plasma concentration (72.0 h, solution U, 500 mg/mL): 298 nM and 157 nM and 138 nM and 181 nM and 210 nM
Plasma concentration (96.0 h, solution T, 400 mg/mL): 366 nM and 228 nM and 294 nM and 177 nM and 134 nM
Plasma concentration (168 h, solution T, 400 mg/mL): 214 nM and 231 nM and 203 nM and 125 nM and 89.9 nM
Plasma concentration (168 h, solution U, 500 mg/mL): 195 nM and 139 nM and 75.3 nM and 187 nM and 175 nM
Plasma concentration (336 h, solution T, 400 mg/mL): 205 nM and 529 nM and 195 nM and 241 nM and 102 nM
Plasma concentration (336 h, solution U, 500 mg/mL): 185 nM and 211 nM and 63.2 nM and 474 nM and 285 nM
Plasma concentration (504 h, solution T, 400 mg/mL): 168 nM and 627 nM and 178 nM and 345 nM and 187 nM
Plasma concentration (504 h, solution U, 500 mg/mL): 231 nM and 288 nM and 96.8 nM and 592 nM and 307 nM
Plasma concentration (672 h, solution T, 400 mg/mL): 123 nM and 603 nM and 149 nM and 387 nM and 229 nM
Plasma concentration (672 h, solution U, 500 mg/mL): 203 nM and 256 nM and 114 nM and 614 nM and 292 nM
Plasma concentration (840 h, solution T, 400 mg/mL): 101 nM and 441 nM and 93.2 nM and 251 nM and 189 nM
Plasma concentration (840 h, solution U, 500 mg/mL): 132 nM and 316 nM and 171 nM and 431 nM and 254 nM
Plasma concentration (1008 h, solution T, 400 mg/mL): 69.5 nM and 426 nM and 77.2 nM and 230 nM and 231 nM
Plasma concentration (1008 h, solution U, 500 mg/mL): 118 nM and 358 nM and 230 nM and 419 nM and 295 nM
Plasma concentration (1344 h, solution T, 400 mg/mL): 74.9 nM and 262 nM and 58.9 nM and 211 nM and 189 nM
Plasma concentration (1344 h, solution U, 500 mg/mL): 84.8 nM and 256 nM and 231 nM and 289 nM and 270 nM
Plasma concentration (1680 h, solution U, 500 mg/mL): 69.2 nM and 293 nM and 199 nM and 254 nM and 177 nM
Plasma concentration (2016 h, solution U, 500 mg/mL): 54.7 nM and 255 nM and 177 nM and 212 nM and 171 nM
Plasma concentration (2352 h, solution T, 400 mg/mL): 90.5 nM and 66.8 nM and 161 nM and 150 nM
Plasma concentration (2352 h, solution U, 500 mg/mL): 64.0 nM and 171 nM and 207 nM and 223 nM and 168 nM
Plasma concentration (2688 h, solution T, 400 mg/mL): 49.6 nM and 372 nM and 151 nM and 77.2 nM
Plasma concentration (2688 h, solution U, 500 mg/mL): 42.3 nM and 142 nM and 125 nM and 115 nM and 118 nM
Plasma concentration (3024 h, solution T, 400 mg/mL): 44.3 nM and 261 nM and 138 nM and 78.8 nM
Plasma concentration (3024 h, solution U, 500 mg/mL): 39.5 nM and 148 nM and 97.7 nM and 113 nM (2×)
Plasma concentration (3360 h, solution T, 400 mg/mL): 38.5 nM and 227 nM and 119 nM and 85.4 nM
Plasma concentration (3360 h, solution U, 500 mg/mL): 32.2 nM and 135 nM and 79.2 nM and 93.6 nM and 100 nM
Plasma concentration (3696 h, solution T, 400 mg/mL): 27.1 nM and 126 nM and 72.8 nM and 68.7 nM
Plasma concentration (3696 h, solution U, 500 mg/mL): 34.7 nM and 98.8 nM and 73.3 nM and 75.1 nM and 70.7 nM
Plasma concentration (4032 h, solution T, 400 mg/mL): 30.4 nM and 124 nM and 63.6 nM and 68.0 nM
Plasma concentration (4032 h, solution U, 500 mg/mL): 33.9 nM and 112 nM and 58.5 nM and 61.8 nM and 62.1 nM
Plasma concentration (4704 h, solution T, 400 mg/mL): 15.9 nM and 71.3 nM and 31.7 nM and 58.1 nM
Plasma concentration (4704 h, solution U, 500 mg/mL): 25.7 nM and 69.8 nM and 30.2 nM and 48.8 nM and 41.2 nM
Plasma concentration (5376 h, solution T, 400 mg/mL): 12.7 nM and 57.9 nM and 21.5 nM and 45.6 nM
